Measured values as given in the RNAGym collection of RNA variant scans (doi:10.7554/elife.90254).
Read counts are not given, so values of variants with three or more changes are uncertain.

B1: LINE1-full (parent)
chain: UACGUAGGUGGUUUUCCCCUGAUAGUGCUAAGGGGGCCUGGAAGUUUGGACUGGGCAGAGCUCAACACAGCGUGGCAAAGUGGCUGUGGCUAGACUGCCUCUCUGGAUUCCUCGUCACUCAGCAGGGCAUCUCUGAGAGAAAUGCC

Variants of: B1
Assay: self-cleavage, relative activity (ratio to wild type); higher = more cleavage; in vitro, sequencing; the parent is a self-cleaving ribozyme

Row | Variant | self-cleavage
1 | C18G C51U U109C A121U | 2.15
2 | C18G U26C U108C | 0.77
3 | C18U A22G U26A A136G | 0.47
4 | C18U A30U U85C C101U C120U | 0.15
5 | C18U A42G A138G | 0.62
6 | C18U A50G A77U | 0.58
7 | C18U A57G U87C | 0.3
8 | C18U A78G U132C | 0.74
9 | C18U A94G U109C | 0.35
10 | C18U A117U A138G | 1.68
11 | C18U C118G A121U | 1.26
12 | C18U G36C U52G A140G | 0.4
13 | C18U G58U U100C | 0.09
14 | C18U U26A U45C U115C | 0.84
15 | C18U U26C A129G U143A | 1.34
16 | C18U U39C G55U | 0.21
17 | C18U U45C U91C | 0.9
18 | C18U U46C A136U | 1.08
19 | C18U U47C C131U C146A | 0.86
20 | C18U U62C A129U | 0.06
21 | C18U U73A U100A | 1.07
22 | C18U U73G A94G U102C | 0
23 | C19A A22G A121G | 0.25
24 | C19A A79G U87G C90U A140G | 0.13

Row | Variant | self-cleavage
25 | C19A A92U A107G C128U | 0.38
26 | C19A A129G A141G | 0.77
27 | C19A U29C A138G | 2.68
28 | C19A U29C U134C | 0.65
29 | C19A U45C A65G A92G U143C | 0
30 | C19A U85C U115C | 0.2
31 | C19G A117U U134G | 0.64
32 | C19G U46C U104A | 0.89
33 | C19G U119C U132C | 1.43
34 | C19U A22G A42G | 1.21
35 | C19U A22G G58A U104A | 0
36 | C19U A22G U39C | 0.57
37 | C19U A22G U108C | 0.71
38 | C19U A22U U26C U62C U115C U119A | 0.3
39 | C19U A30C A59U U91C | 0.27
40 | C19U A30U A43G A107U | 1.05
41 | C19U A42U U108C | 2.38
42 | C19U A43G A94U U115G | 0.08
43 | C19U A43U A141G | 0.96
44 | C19U A50G A121G | 0.95
45 | C19U A69C U87A | 0.08
46 | C19U A69U U102A | 0.13
47 | C19U A77U A129U | 0.63
48 | C19U A78U U104C U115A | 2.55

Row | Variant | self-cleavage
49 | C19U A94G U96C | 0
50 | C19U A94U C99A A129G | 0.11
51 | C19U A117C A136U | 1.64
52 | C19U A117G U134C | 1.06
53 | C19U C38A A42G U81C A140G | 1.47
54 | C19U C84U A140U | 0.05
55 | C19U C99U U132A | 0.48
56 | C19U C118U U130C | 1.81
57 | C19U C133A A141G | 1.23
58 | C19U G25A A67G | 0.31
59 | C19U G33A U73A | 0.95
60 | C19U G34A A129G A141G | 1.21
61 | C19U G53A U81C U91C | 0.27
62 | C19U G55A A69G | 0.04
63 | C19U G74A G88C U108C | 0.08
64 | C19U G89A U134C | 0
65 | C19U G105A U119C | 1.3
66 | C19U U20A U39C A57G U62C A78G U143C | 0
67 | C19U U23C A64C A79G C98U A138G | 0.06
68 | C19U U26C A30G | 1.53
69 | C19U U39A U104C A138G | 1.75
70 | C19U U39A U130C | 2.87
71 | C19U U45C A69G | 1.39
72 | C19U U47A A124U | 0.7

Row | Variant | self-cleavage
73 | C19U U52C A138G | 0
74 | C19U U52C U100C | 0.88
75 | C19U U85C U87G G88U A94G | 0.15
76 | C19U U85C U115C C131A | 0.1
77 | C19U U96C A136G | 0.11
78 | C19U U96C U115C | 0.54
79 | C19U U109A A138U | 1.75
80 | C19U U115C A142G | 0.97
81 | C19U U132C A138G | 1.47
82 | U20A A22G A117U A140G | 1.43
83 | U20A A22G G49U A69G U81A C118U G127A | 0.23
84 | U20A A22G U134G A140G | 0.63
85 | U20A A24G U112A A124G | 1.89
86 | U20A A30U A67G U85C U132C | 0.38
87 | U20A A43G U100C G126A | 2.86
88 | U20A A43U U46A | 1.38
89 | U20A A50G A69U A141G | 0.05
90 | U20A A50G U96C U119C | 0
91 | U20A A50G U102C | 1.38
92 | U20A A50U A94G A117G A121U | 0.53
93 | U20A A57G U81A | 1.4
94 | U20A A64U G114U C120A A138G | 0.34
95 | U20A A67U A92U | 0.14
96 | U20A A69G A138G | 0.2

Row | Variant | self-cleavage
97 | U20A A69G C101U A136G | 0.61
98 | U20A A77G C101U | 1.53
99 | U20A A77G G88A U100C | 0.15
100 | U20A A78G C110A U115C A140G | 1.3
101 | U20A A107G U108C | 2.37
102 | U20A A117G U132A A136G U143A | 2.63
103 | U20A A117U A124G A142G | 1.45
104 | U20A A129G U132C U134A | 0.6
105 | U20A C37G C90U | 0.05
106 | U20A C37U G44U U62G | 0
107 | U20A C38A A67G U96A C99U A138G | 0.05
108 | U20A C38U U47C G55C A64G G135A | 0.61
109 | U20A C51U U109C | 1.24
110 | U20A C66U A79U U119C A129G U134C U143A | 0.07
111 | U20A C68U A77G | 0.42
112 | U20A G27A U47A | 0.8
113 | U20A G27A U119A | 1.12
114 | U20A G27C G32A A79G | 1.64
115 | U20A G34A U45C A140G | 0.97
116 | U20A G34C A65G U119C | 0
117 | U20A G34U A77G U87C | 0.19
118 | U20A G36C A57G | 0.34
119 | U20A G60C U102C A140G A141G | 0.03
120 | U20A G89A U96C U130C | 0.03

Row | Variant | self-cleavage
121 | U20A U23A A42G A69G G75U A138G | 0.63
122 | U20A U26A U85C U112C A140U | 0.13
123 | U20A U26A U91C A92G | 0
124 | U20A U26A U112A | 0.76
125 | U20A U26A U134C | 0.64
126 | U20A U26C G41A A65G A77G | 0
127 | U20A U26C U109C C110G | 2
128 | U20A U26G A30G U115A | 0.45
129 | U20A U29G U62C U134C | 0.35
130 | U20A U39A G86A | 0.1
131 | U20A U39C U115C | 0.51
132 | U20A U45C A77G C118A | 2.17
133 | U20A U45G U96A | 0.05
134 | U20A U46A U62C | 0.03
135 | U20A U46C U62C A77G | 0
136 | U20A U47A U52C G82A | 1.65
137 | U20A U47A U108C | 1.35
138 | U20A U47A U119A | 1.36
139 | U20A U52A A67U A136G | 0.24
140 | U20A U52A U91C A94G U143C | 0.48
141 | U20A U62C A77U | 0.08
142 | U20A U62C U87A | 0.08
143 | U20A U62C U108C | 0
144 | U20A U73A A138G | 2.39

Row | Variant | self-cleavage
145 | U20A U73A A142G | 0.23
146 | U20A U73A U104A U112G C113U A117G A124U A129U | 1.81
147 | U20A U81A A136G | 1.84
148 | U20A U81C G127A | 0.93
149 | U20A U81C U104C G105A G114A U115C A117U | 1.23
150 | U20A U81G U96C G139U | 0.09
151 | U20A U87C U102C G127U U130C A142G | 0.29
152 | U20A U91C A129G | 1.91
153 | U20A U96C U112C | 0
154 | U20A U102C A129U | 1.1
155 | U20A U104C A141G | 1.41
156 | U20A U104C C131U | 0.47
157 | U20A U108C U109C | 0.66
158 | U20A U108G G126A | 0.18
159 | U20A U109A U130C | 0.73
160 | U20A U115A C118U | 1.08
161 | U20A U130A A141G | 1.11
162 | U20A U130C A140G | 1.73
163 | U20C A22G A140G | 1.39
164 | U20C A22U A42G A43G U96A A138U | 0.12
165 | U20C A22U U39C A64U G89A A142G | 0.04
166 | U20C A22U U85C | 0
167 | U20C A22U U112A | 0.93
